The supplement of paper PMC9446081
About 220 (0.56%) of roughly 39,000 compounds showed activity. This is one part of the list.

system: Escherichia coli K-12 BW25113; experiment: relative growth (OD600 normalised to plate interquartile mean) (fraction); higher = less growth inhibition, active = 0.2 or less; conditions: 50 µM; LB; incubation time: overnight (16-24 h)
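Note: static incubation at 37 °C against the wild-type strain, values averaged over two biological replicates.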

SMILES	relative growth
C[C@@H]1CCCCO[C@@H](CN(C)C(=O)c2ccccc2)[C@@H](C)CN([C@@H](C)CO)C(=O)c2cc(NC(=O)NC3CCCCC3)ccc2O1	inactive: 0.995
C[C@H]1CCCCO[C@H](CN(C)Cc2ccc3c(c2)OCO3)[C@@H](C)CN([C@@H](C)CO)C(=O)c2cc(NC(=O)Nc3ccccc3)ccc2O1	inactive: 1.03
C[C@@H]1CN([C@H](C)CO)C(=O)c2cc(NC(=O)Nc3cccc4ccccc34)ccc2O[C@@H](C)CCCCO[C@H]1CN(C)C	inactive: 1.02
C[C@@H]1CN([C@@H](C)CO)C(=O)c2cc(NC(=O)Nc3ccc(C(F)(F)F)cc3)ccc2O[C@@H](C)CCCCO[C@@H]1CN(C)C(=O)CCCN(C)C	inactive: 0.946
C[C@H]1CCCCO[C@@H](CN(C)C(=O)Nc2ccc(C(F)(F)F)cc2)[C@@H](C)CN([C@@H](C)CO)C(=O)c2cc(NC(=O)Nc3ccc4c(c3)OCO4)ccc2O1	inactive: 0.993
C[C@H](CO)N1C[C@H](C)[C@H](CN(C)Cc2ccc(Oc3ccccc3)cc2)Oc2c(NS(=O)(=O)c3ccc(Cl)cc3)cccc2C1=O	inactive: 1.03
C[C@H]1CN([C@@H](C)CO)C(=O)Cc2cc(NC(=O)Nc3cc(Cl)cc(Cl)c3)ccc2O[C@H]1CN(C)S(=O)(=O)c1ccc(Cl)cc1	inactive: 1.01
C[C@H](CO)N1C[C@H](C)[C@@H](CN(C)C(=O)Nc2ccc3c(c2)OCO3)OCCCC[C@H](C)Oc2ccc(NS(=O)(=O)c3ccccc3)cc2C1=O	inactive: 1.06
COc1ccc(CN(C)C[C@@H]2OCCCC[C@H](C)Oc3ccc(NS(=O)(=O)c4cccs4)cc3C(=O)N([C@H](C)CO)C[C@@H]2C)cc1	inactive: 1.01
O=C(O)CNC(=O)[C@H]1COc2ccccc2O1	inactive: 1.04
O=C(C[C@@H]1CC[C@H]2[C@@H](COC[C@@H](O)CN2S(=O)(=O)c2ccc(F)cc2)O1)NCCN1CCCCC1	inactive: 0.967
Cc1noc(C)c1NC(=O)Nc1ccc2c(c1)CC(=O)N([C@@H](C)CO)C[C@@H](C)[C@H](CN(C)S(=O)(=O)c1cccs1)O2	inactive: 1.01
C[C@H](CO)N1C[C@H](C)[C@H](CN(C)S(=O)(=O)c2cccs2)Oc2ncc(C#Cc3cccc(F)c3)cc2C1=O	inactive: 1.04
Cc1ccc(S(=O)(=O)Nc2ccc3c(c2)C(=O)N([C@H](C)CO)C[C@H](C)[C@H](CN(C)C(=O)Nc2ccccc2)OCCCC[C@@H](C)O3)cc1	inactive: 1
CC(C)N1C[C@H](C)[C@@H](CN(C)Cc2ccc(Oc3ccccc3)cc2)Oc2c(cccc2-c2nnc(-c3ccncc3)o2)C1=O	inactive: 1.02
C[C@H](CO)N1C[C@H](C)[C@@H](CN(C)C(=O)Nc2cccc3ccccc23)OCc2cn(nn2)CCCC1=O	inactive: 1.01
NCC[C@H]1CC[C@H](NC(=O)C2CC2)[C@H](CO)O1	inactive: 1.04
CC(=O)OCC1=C(C(=O)O)N2C(=O)[C@@H](NC(=O)CSc3ccncc3)[C@H]2SC1	inactive: 1.05
C[C@@H]1CN([C@H](C)CO)C(=O)c2cc(C#Cc3cccc(F)c3)cnc2O[C@@H]1CN(C)CC1CCOCC1	inactive: 1
C[C@@H]1CCCCO[C@@H](CN(C)Cc2ccc(C(=O)O)cc2)[C@H](C)CN([C@@H](C)CO)C(=O)c2cc(NS(=O)(=O)c3cccs3)ccc2O1	inactive: 1.01
C[C@H]1CCCCO[C@@H](CN(C)Cc2ccc(C(=O)O)cc2)[C@@H](C)CN([C@@H](C)CO)C(=O)c2cc(NC(=O)Nc3ccc(C(F)(F)F)cc3)ccc2O1	inactive: 0.995

SMILES	relative growth
CC(C)NC(=O)Nc1ccc2c(c1)CC(=O)N([C@@H](C)CO)C[C@@H](C)[C@@H](CN(C)Cc1ccc(-c3ccccc3)cc1)O2	inactive: 0.993
CNC[C@H]1Oc2c(NS(=O)(=O)c3cn(C)cn3)cccc2C(=O)N([C@@H](C)CO)C[C@@H]1C	inactive: 0.994
COc1ccc(NC(=O)Nc2ccc3c(c2)C(=O)N([C@@H](C)CO)C[C@@H](C)[C@H](CN(C)Cc2ccc(C(=O)O)cc2)OCCCC[C@@H](C)O3)cc1	inactive: 0.991
C[C@H]1CN([C@@H](C)CO)C(=O)c2cc(-c3cccc(C#N)c3)cnc2O[C@@H]1CN(C)C(=O)C1CCOCC1	inactive: 1.01
C[C@@H](NC(=O)COc1ccccc1)C(=O)O	inactive: 0.907
CC(=NNC(=O)c1nnn(-c2nonc2N)c1CN1CCC(C)CC1)c1cccc(Br)c1	inactive: 1.06
CCc1nc2ccc(C(=O)N3CCN(c4ccccc4)CC3)cn2c1N(CC)Cc1cccc(Br)c1	inactive: 1.03
C[C@@H]1CN([C@@H](C)CO)C(=O)c2cc(N(C)C)ccc2O[C@@H](C)CCCCO[C@@H]1CN(C)C(=O)Nc1cccc2ccccc12	inactive: 0.983
C[C@@H]1CCCCO[C@H](CN(C)C(=O)C2CCCCC2)[C@H](C)CN([C@@H](C)CO)C(=O)c2cc(NC(=O)C3CCCCC3)ccc2O1	inactive: 0.99
C[C@H]1CN([C@@H](C)CO)C(=O)Cc2cc(NC(=O)NC3CCCCC3)ccc2O[C@@H]1CN(C)Cc1ccc(C(F)(F)F)cc1	inactive: 1.03
Cc1noc(C)c1NC(=O)Nc1ccc2c(c1)C(=O)N([C@H](C)CO)C[C@H](C)[C@H](CN(C)C(=O)Nc1cccc3ccccc13)O2	inactive: 1.01
C[C@@H]1CN([C@@H](C)CO)C(=O)CCCn2cc(nn2)CO[C@@H]1CN(C)S(=O)(=O)c1ccc2ccccc2c1	inactive: 1
Cc1noc(C)c1NC(=O)N(C)C[C@@H]1Oc2c(NC(=O)C3CC3)cccc2C(=O)N([C@H](C)CO)C[C@H]1C	inactive: 0.989
CN(C)Cc1nc2c([nH]1)c(=O)[nH]c(=O)n2C	inactive: 0.998
COCC#Cc1ccc2c(c1)O[C@@H](CN(C)S(C)(=O)=O)[C@H](C)CN([C@H](C)CO)S2(=O)=O	inactive: 0.986
C[C@H](CO)N1C[C@H](C)[C@H](CN(C)S(=O)(=O)c2ccc(F)cc2)Oc2ccc(NC(=O)CCN3CCOCC3)cc2CC1=O	inactive: 1.05
COC(=O)[C@@H](Cc1ccccc1)N[C@H](/C=C/C1CC1)[C@@H](O)CCn1cc(-c2ccc(C(=O)NO)cc2)nn1	inactive: 0.933
O=C(N[C@H]1CC[C@H](CCn2cc(C3(O)CCCC3)nn2)O[C@H]1CO)C1CCOCC1	inactive: 0.979
C[C@H](CO)N1C[C@H](C)[C@@H](CN(C)Cc2ccc(Cl)c(Cl)c2)OCc2ccccc2-c2ccccc2C1=O	inactive: 0.99
NCc1nc(CCc2ccccc2)cs1	inactive: 1
COc1ccc(NC(=O)N2C[C@H](O)COC[C@@H]3O[C@@H](CC(=O)NC4Cc5ccccc5C4)CC[C@H]32)cc1	inactive: 0.993

SMILES	relative growth
COc1ccc(S(=O)(=O)Nc2cccc3c2O[C@@H](CN(C)S(=O)(=O)c2ccc(F)cc2)[C@H](C)CN([C@H](C)CO)C3=O)cc1	inactive: 1.01
C[C@H](CO)N1C[C@H](C)[C@H](CN(C)C(=O)Nc2ccc(F)cc2)Oc2ncc(C#CC(C)(C)O)cc2C1=O	inactive: 0.979
O=C(O)C[C@@H]1CC[C@@H]2[C@H](COC[C@@H](O)CN2S(=O)(=O)c2ccc(F)cc2)O1	inactive: 1.01
CC(C)CCC[C@@H](C)N	inactive: 0.959
COC(=O)CCCCCCC(=O)N/N=C/[C@H](O)[C@H](O)[C@@H](O)[C@H](C)O	inactive: 1.01
CN(C)C(=O)[C@@H]1[C@@H](CO)[C@@H]2Cn3c(ccc(C4=CCCC4)c3=O)[C@H]1N2S(=O)(=O)c1cn(C)cn1	inactive: 0.992
C[C@@H]1CN([C@H](C)CO)C(=O)c2cc(NC(=O)c3ccccc3)ccc2O[C@@H](C)CCCCO[C@H]1CN(C)Cc1ccc2c(c1)OCO2	inactive: 0.917
CCOC(=O)C(CCc1ccccc1)NC(C)C(=O)N(CC(=O)O)C1Cc2ccccc2C1.Cl (stereo unspecified)	inactive: 1.03
CC(=O)N1CCC2(CC1)NC(=O)NC2=O	inactive: 0.994
COc1ccc(NC(=O)N(C)C[C@@H]2OCCCC[C@@H](C)Oc3ccc(NC(=O)Nc4ccc(F)cc4)cc3C(=O)N([C@@H](C)CO)C[C@@H]2C)cc1	inactive: 1.01
O=C(C[C@H]1CC[C@H]2[C@@H](COC[C@H](O)CN2S(=O)(=O)c2cccc(F)c2)O1)NCCCN1CCOCC1	inactive: 0.992
CN1CCN(C(=O)[C@H]2[C@H](CO)[C@H]3Cn4c(cccc4=O)[C@@H]2N3Cc2ccncc2)CC1	inactive: 1.02
C[C@H]1CN([C@@H](C)CO)C(=O)Cc2cc(NC(=O)Nc3cccc4ccccc34)ccc2O[C@H]1CN(C)C(=O)NC1CCCCC1	inactive: 1.02
O=C(CCCN1CCN(c2ccccn2)CC1)c1ccc(F)cc1	inactive: 1.02
C[C@@H]1CN([C@H](C)CO)C(=O)c2cc(NC(=O)C3CCCCC3)ccc2O[C@@H]1CN(C)Cc1ccc(-c2ccccc2)cc1	inactive: 1.01
C[C@@H]1CN([C@@H](C)CO)C(=O)c2cc(NC(=O)C3CCCCC3)ccc2O[C@@H](C)CCCCO[C@H]1CN(C)Cc1ccccc1	inactive: 0.984
CC(C)[N+](C)(CCOC(=O)C1c2ccccc2Oc2ccccc21)C(C)C.[Br-]	inactive: 1.03
O=C(C[C@H]1CC[C@@H]2[C@H](COC[C@@H](O)CN2S(=O)(=O)c2ccc(F)cc2)O1)N[C@@H]1CCN(Cc2ccccc2)C1	inactive: 1.01
C[C@H](CO)N1C[C@H](C)[C@@H](CN(C)Cc2ccc(Cl)c(Cl)c2)OCCCC[C@H](C)Oc2ccc(NS(=O)(=O)c3ccc(F)cc3)cc2C1=O	inactive: 0.986
